Results from patent US20140255405A1 (published 2014).

Target: T1, human IL-6 (human, UniProt P05231 30-212)
T1 construct: also called purified recombinant human IL6 (Peprotech catalogue number 200-06)
Test: SEC-HPLC of antibody incubated with equimolar human IL6; retention time of monomeric fraction 7.4 to 7.0 minutes
From the text: In this example, three purified antibodies against human IL6 were used, each with a molecular weight of approximately 200 kDa and therefore presumed to be of similar hydrodynamic size. The antibodies used were the monospecific bivalent antibody D-5H5L, the bispecific tetravalent antibody DVD-45 and the tetravalent bispecific antibody Mab4-5H5L. The hydrodynamic size of the antibodies was compared either alone or in complex with IL6, using SEC-HPLC. For immune complex formation the purified antibodies were incubated for two hours with purified recombinant human IL6 (Peprotech catalogue number 200-06), by dropwise adding IL6 stock solution to the purified antibody to a final equimolar concentration compared to the calculated concentration of unique antibody binding sites. Following incubation, antibodies with and without IL6 were analysed at room temperature using a TOSOH G3000 SWXL column of 7.8 mm×30 cm, a mobile phase of 10% v/v 10×PBS buffer (Gibco catalogue number 70011), 3% v/v ethanol and 87% water, with a flow rate of 1 ml/min and detection wavelength of 280 nm. The results are illustrated in FIG. 5.

binding result: binds
B1: D-5H5L (antibody, human IgG1, kappa)
heavy: EVQLVESGGGLVQPGGSLRLSCAASGFTFSSYAMSWIRQAPGKGLEWIGQISGSGGSTYYNDNVLGRFTISRDNSKNTLYLQMNSLRAEDTAVYYCARDSGYFDIWGQGTLVTVSS[human IgG1 constant region left out here]GSASGGSEVQLVESGGGLVQPGGSLRLSCAASGFSLSNYYVTWVRQAPGKGLEWVGIIYGSDETAYATSAIGRFTISRDNSKNTLYLQMNSLRAEDTAVYYCARDDSSDWDAKFNLWGQGTLVTVSSGGGGSGGGGSGGGGSAIQMTQSPSSLSASVGDRVTITCQASQSINNELSWYQQKPGKAPKLLIYRASTLASGVPSRFSGSGSGTDFTLTISSLQPDDFATYYCQQGYSLRNIDNAFGGGTKVEIK
light: DTQMTQSPSSLSASVGDRVTITCRASQSISSYLAWYQQKPGKAPKLLIYAASSLYSGVPSRFSGSGSGTDFTLTISSLQPEDFATYYCQQYSSLPYTFGQGTKVEIKRTVAAPSVFIFPPSDEQLKSGTASVVCLLNNFYPREAKVQWKVDNALQSGNSQESVTEQDSKDSTYSLSSTLTLSKADYEKHKVYACEVTHQGLSSPVTKSFNRGEC
notes: Monospecific bivalent control: Mab5 scFv (VH-VL) fused to the C-terminus of CH3 of a Dummy human IgG1 with germline-like variable domains; also called Mab D-5H5L
